Data on 1 molecule can be found in article PMC11162469, “Discovery of RXFP2 genetic association in resistant hypertensive men and RXFP2 antagonists for the treatment of resistant hypertension” (Scientific Reports, 2024).

The IC50 is the concentration that inhibits the measured activity by half. What is called half-life is the time needed for the level to fall by half in the phase considered. One may read the Cmax as the highest concentration seen after dosing. Usually Tmax stands for the time from dosing to the highest level.

The target of data set [1] is T1, rat RXFP2 (Rattus norvegicus, UniProt F7EMH8).
T1 sequence (F7EMH8 20-737): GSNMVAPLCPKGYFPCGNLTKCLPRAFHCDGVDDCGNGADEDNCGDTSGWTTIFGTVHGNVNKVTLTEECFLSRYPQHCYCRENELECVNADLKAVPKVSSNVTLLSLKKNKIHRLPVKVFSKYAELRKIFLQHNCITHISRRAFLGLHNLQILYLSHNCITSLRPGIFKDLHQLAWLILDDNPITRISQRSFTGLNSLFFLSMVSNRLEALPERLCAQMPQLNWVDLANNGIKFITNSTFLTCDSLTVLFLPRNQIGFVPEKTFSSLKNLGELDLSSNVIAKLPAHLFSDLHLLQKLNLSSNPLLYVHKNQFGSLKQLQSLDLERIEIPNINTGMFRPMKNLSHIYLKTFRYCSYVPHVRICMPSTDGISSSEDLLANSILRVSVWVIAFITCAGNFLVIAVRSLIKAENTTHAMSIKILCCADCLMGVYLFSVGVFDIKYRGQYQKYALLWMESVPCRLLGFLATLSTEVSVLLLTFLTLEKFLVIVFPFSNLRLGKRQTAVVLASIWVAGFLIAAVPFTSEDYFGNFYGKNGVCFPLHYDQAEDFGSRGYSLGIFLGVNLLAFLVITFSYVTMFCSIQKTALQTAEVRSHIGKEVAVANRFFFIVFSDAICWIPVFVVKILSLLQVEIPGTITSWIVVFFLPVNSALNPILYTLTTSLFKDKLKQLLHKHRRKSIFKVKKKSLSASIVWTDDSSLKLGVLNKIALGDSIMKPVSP
Put plainly: INSL3-stimulated CYP11B2 mRNA expression in H295R stably expressing rat RXFP2. Format: cell-based. Details: expressed in transfected cells. To be noted: INSL3 EC80 (3.5 nM), 48 h, qPCR; N = 2. On the procedure:
(§1) RXFP2 antagonists were added to H295R-rRXFP2 before addition of INSL3 EC80 (3.5 nM) for 48 h, whereupon the cells and supernatants were collected. CYP11B1 and CYP11B2 mRNA were determined by qPCR and the RXFP2 blocker potencies were calculated (Fig. 5a). Fifteen antibodies have IC50s < 50 nM, and three of the top antibodies (1F2, 4G6, and 2D4) were selected for evaluation in steroid hormone secretion assays by ELISA.
(§2) Data entered as XY table, with x = [Inhibitor] (nM) and y = CYP11B2 or CYP11B1 fold change.

Data set [2] in a line: Pharmacokinetic study of RXFP2 mAbs in rat. Format: in vivo, Wistar Han rats. On the procedure: For the pharmacokinetic study of RXFP2 mAbs in rat, 1G1, 2D4, 4B1, 4G6, 1F2, and 3F3 were prepared in phosphate buffered saline (0.100 mg/mL) with low endotoxin (≤ 0.76 EU/mL). Adult male Wistar Han rats (n = 3/mAb) were administered 1 mg/kg subcutaneously (10 mL/kg). Blood samples (100 µL) were collected in EDTA containing tubes at 0.25, 3, 6 24, 48, 96, 168 (day 7), 336 (day 14), 504 (day 21), and 672 (day 28) hours post dose, immediately centrifuged (6100 rpm), and 50 µL plasma stored at − 80 °C until assay. Rats maintained health throughout the study and were anesthetized (isoflurane to effect) and euthanized on day 28.
Frozen rat plasma samples were thawed and analyzed using a qualified analytical method based on sample dilution, followed by Electrochemiluminescence immunoassay analysis. The lower limit of quantification (LLQ) was 0.1 µg/mL using a 10 µL aliquot of 51-fold diluted rat plasma with a higher limit of quantification (HLQ) of 10 µg/mL. RXFP2 mAbs were captured with LDLa protein and detected with sulfo-tag labeled mouse anti-rat IgG2b. The computer systems that were used to acquire and quantify data included Gyrolab Workstation Version 8.1.5 and Watson LIMS version 7.6.1. Rat pharmacokinetic parameters were calculated by non-compartmental analysis (NCA) analysis using WinNonlin Phoenix 64 (version 8.3). Values are reported in mean ± standard deviation.

The target of data set [3] is T1, rat RXFP2. In words: INSL3-stimulated cAMP assay in HEK293 stably expressing rat RXFP2.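 Note: cAMP measured with an HitHunter kit in 384-well plates, 11-point dose–response curves up to 1 µM antibody, four-parameter variable-slope fit.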 To be noted: INSL3 EC80-stimulated cAMP, stable expression, N = 2. (In general: Cyclic AMP is a second messenger, typically raised through Gs and lowered through Gi signalling.)
Data set [4] deals with T1, rat RXFP2. In words: INSL3-stimulated CYP11B1 mRNA expression in H295R stably expressing rat RXFP2. More on the design: expressed in transfected cells. To be noted: INSL3 EC80 (3.5 nM), 48 h, qPCR; N = 2. Format: cell-based. On the procedure:
as §1, §2

Data set [5] addresses T2, human LDLa peptide (UnitProt Q8WXD0 43-80) (Homo sapiens, UniProt Q8WXD0).
T2 construct: human LDLa peptide (Q8WXD0 43-80)
T2 sequence (Q8WXD0 43-80 limits assumed): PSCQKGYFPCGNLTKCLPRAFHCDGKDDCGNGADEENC
In words: ELISA binding to linker-less human LDLa peptide. On the procedure: The human/rat RXFP2 cross reactive antibodies belong to two epitope bins and were further evaluated for binding to the linker-less human LDLa peptide (UnitProt Q8WXD0 43-80) by ELISA. […] The different domain requirements for binding are consistent with results from the binning experiment showing 4F6 and 4G6 are in a separate bin from 4B1.
Rat LDLa-linker_ratFc, human LDLa-linker_ratFc, or ratFc, or human LDLa peptide (Q8WXD0 43-80) was diluted to 1 µg/mL in 1X PBS and immobilized in separate 96-well ELISA plates (Nunc Maxisorp), 50 µL/well. The plates were then incubated overnight at 4 °C. The following day the plates were washed three times with ELISA wash buffer (PBS + 0.05% Tween-20) and then blocked with ELISA blocking buffer (PBS + 0.05% Tween-20 + 1% BSA), 200 µL/well, and incubated 1 h at room temperature on a shaker. Plates were again washed three times followed by the addition of the primary antibodies. Hybridoma supernatant was added neat, 50 µL/well; mouse serum was added 1:100 and then serially diluted 1:2 for 8 points, 50 µL/well. Purified antibodies were added 5 µg/mL in the first well and serially diluted down the plate 1:2 for 8 points, 50 µL/well. Primary antibody was incubated for 1 h at room temperature on a shaker. […] Stopping solution (2N Sulfuric acid) was added to the plates 50 µL/well, and then read on a plate reader (SpectraMax Molecular Devices) at 450 nm.
A general note: An ELISA detects its analyte on a solid surface through an enzyme-linked reagent.

[6] abbreviates: male Wistar Han rats, 1 mg/kg s.c., n = 3, mean ± SD.

B1: 4B1: Human/rat cross-reactive RXFP2 monoclonal antibody, rat IgG2b backbone; requires the linker domain for binding (antibody, V domains shown)
VH: QVQLQQSGAELVRPGSSVRISCKASGYAFSNSWINWVKQRPGQGLEWMGQIYPGDGNTNYNGRFKDKATLTADKSSSTAYMQLSSLTSEDSAVYFCARDHNYWGQGTTLTVSS
VL: DVVMTQTPLTLSVTIGQPASISCKSSQSLLYSNGKTYLNWLLQRPGQSPKRLIYLVSYLDSGVPDRFTGSGSGTNFILNISRVEADDLGVYYCLQGTHFPRTFGGGTKLEIK
As for B1, in data set [1], the midpoint of inhibition, the IC50, lay at 0.75 nM. Besides, in data set [2] (Wistar Han rats, 1 mg/kg sc.), the “apparent volume of distribution” value was 0.133 ± 0.005 L/kg and the half-life was found to be 150 h. Also, the “estimated dose to achieve tenfold higher IC50 HEK-rRXFP2 cAMP activity for approximately 28 days in rat” value in data set [2] (from trough concentration, dose-linearity assumed) is given as “approximately 1324 mg/kg”. For the same molecule, in data set [2] (setting [6]), the AUClast turned out to be 1540 ± 94 µg·h/mL, the “CL/F (apparent clearance)” value turned out to be 14.9 ± 0.72 mL/day/kg, the Cmax is 5130 ± 334 ng/mL and the “T1/2 (terminal half-life)” value is listed as 150 ± 9 h. Moreover, the Tmax in data set [2] (setting [6]) was 96 ± 0 h. Further, in data set [3], the “HEK293-rat RXFP2 cAMP % Max Response” value came to 77.2%. Besides, the IC50 in data set [3] (read-out: HEK293-rat RXFP2 cAMP IC50) stood at 35.8 nM. Besides, the IC50 in data set [4] is 1.72 nM. Besides, in data set [5], the “binding to linker-less human LDLa peptide” value is “requires the linker domain for binding”.
